Reference: US12441811B2, “Compositions and methods for treating serpin B13 disorders” (REGENTS OF THE UNIVERSITY OF MINNESOTA, priority 2019, dated 2025)

B1: mAb3: fully human full-length IgG1 to serpinB13; CLONE3 heavy SEQ ID NO:49, light SEQ ID NO:53 (antibody)
heavy: QVQLQQWGAGLLKPSETLSLTCAVYGGSFSGYYWSWIRQPPGKGLEWIGEINHSGSTNYNPSLKSRVTISVDTSKNQFSLKLSSVTAADTAVYYCARRYCSGGSCYLVGTGSELDYWGQGTLVTVSS[human IgG1 constant region omitted]
light: DIQMTQSPSTLSASVGDRVTITCRASQSISSWLAWYQQKPGKAPKLLIYKASSLEIGVPSRFSGSGYGTEFTLTISSLQPDDFATYYCLQYSTHSTFGQGTRVEIKRTVAAPSVFIFPPSDEQLKSGTASVVCLLNNFYPREAKVQWKVDNALQSGNSQESVTEQDSKDSTYSLSSTLTLSKADYEKHKLYACEVTHQGLSSPVTKSFNRGEC
B2: humanized antibody: CDR-grafted humanized B29; heavy chain SEQ ID NO:18, light chain SEQ ID NO:20 (antibody)
heavy: EIQLVESGGGLVQPGGSVRLSCAASGYNFKTYGMSWVRQAPGKGLEWMGWINTYSGMPTYADDFKGRFTFSLDTSKNTAYLQINSLRAEDTAVYFCARPLLGLDYWGQGTLVTVSS[human IgG1 constant region omitted]
light: DIQMTQSPSSLSASVGDRVTITCKSSQSLLHSDGKTFLNWFQQKPGKSPKLLIYLVSKLESGVPSRFSGSGSGTDFTLTISSLQPEDFATYYCLQHTHFPLTFGQGTKVEIKRTVAAPSVFIFPPSDEQLKSGTASVVCLLNNFYPREAKVQWKVDNALQSGNSQESVTEQDSKDSTYSLSSTLTLSKADYEKHKVYACEVTHQGLSSPVTKSFNRGEC
B3: chimeric antibody: mouse/human chimeric IgG of B29; heavy chain SEQ ID NO:22, light chain SEQ ID NO:24 (antibody)
heavy: QIQLVQSGPELKKPGETVKISCKASGYTFTTYGMSWVKQAPGKGLKWMGWINTYSGMPTYADDFKGRFAFSLETSATTAYLQINNLKNEDTATYFCARPLLGLDYWGQGTTLTVSS[human IgG1 constant region omitted]
light: DIVMTQTPLSLSVTIGQPASISCKSSQSLLHSDGKTFLNWFLQRPGQSPKLLIYLVSKLESGIPDRFSGSGSGTDFTLKISRVEVEDLGVYYCLQHTHFPLTFGAGTKLEIKRTVAAPSVFIFPPSDEQLKSGTASVVCLLNNFYPREAKVQWKVDNALQSGNSQESVTEQDSKDSTYSLSSTLTLSKADYEKHKVYACEVTHQGLSSPVTKSFNRGEC
B4: mAb2: fully human full-length IgG1 to serpinB13; CLONE2 heavy SEQ ID NO:41, light SEQ ID NO:45 (antibody)
heavy: QMQLVQSGGGVVRPGGSLRLSCAASGFTFDDYGMSWVRQAPGKGLEWVSGINWNGGSTGYADSVKGRFTISRDNAKNSLYLQMNSLRAEDTALYYCARESSMTTVTTYLLREVGVGLDFDYWGQGTLVTVSS[human IgG1 constant region omitted]
light: ETTLTQSPGTLSLSPGERATLSCRASQTVSGSYLAWYQQKPGQPPRLLIYGASSRATGIPDRFSGSGSGTDFTLTISRLEPEDFAVYYCQDYGSSRTFGQGTKVELKRTVAAPSVFIFPPSDEQLKSGTASVVCLLNNFYPREAKVQWKVDNALQSGNSQESVTEQDSKDSTYSLSSTLTLSKADYEKHKLYACEVTHQGLSSPVTKSFNRGEC

Legend:
[1] = test system: human serpinB13 and other clade B serpins; test: Specificity of human anti-serpinB13 antibodies (ELISA, Luminex-based assay); format: binding; conditions: Luminex at 1.0 μg/mL
Description: Human anti-serpinB13 mAbs bind specifically to serpinB13, but not to other members of the clade B protein family. To produce human antibody to serpinB13, three rounds of biopanning were performed, using Fab library (1×10^11 antibody specificities), against recombinant human serpinB13 produced in baculovirus and immobilized on solid matrix. Screening of individual clones by ELISA led to DNA fingerprinting and sequencing of three unique clones. Positive antibodies were tested by ELISA for binding to the target antigen and cross-reactivity with other proteins. The Fab fragments were then reformatted into fully human full-length IgG1. […] It was also noticed that these mAbs recognize both mouse and human serpinB13.
Recombinant proteins and their expression. […]
Luminex assay. […] The data were expressed as fluorescence intensity (F.I.) due to serum binding activity in the presence of beads precoated with serpinB13 and after subtracting the average F.I. due to serum binding activity in the presence of beads precoated with control proteins, Gfp and Scgn (e.g. F.I^B13−[F.I.^GFP+F.I.^Scgn]/2). The samples were evaluated based on the level of F.I. and the degree of inhibition of binding to serpin-B13 coated beads with soluble serpinB13 (2.5 μg/mL), compared with the bovine serum albumin (BSA). […]

[2] = Thermostability (Tm and Tagg) using UNcle system; format: physicochemical; conditions: after humanization, compared with chimeric antibody
Description: (§1) ELISA and SPR assays were performed to verify the affinity of the humanized and chimeric antibody. […] Thermostability (Tm and Tagg values) of the antigen, humanized antibody and chimeric antibody was measured using UNcle system.

[3] = test system: serpin B13; test: ELISA and SPR assays to verify affinity of the humanized and chimeric antibody; format: binding
Description: as §1

Molecule	specificity of binding: serpinB13 versus other clade B serpins [1]	Tagg [2]	Tm [2]	binding affinity for the target antigen [3]
B1	specifically recognize human serpinB13 but no other serpins of clade B family	–	–	–
B2	–	enhanced	enhanced	obvious binding affinity
B3	–	–	–	obvious binding affinity
B4	specifically recognize human serpinB13 but no other serpins of clade B family	–	–	–
